Entries after “also recorded” stand apart in the source; their conditions may differ. Where two headings read alike, the source gives them in different places.
B1: SNS622-MC-vc-PAB-MMAE (conjugate)
heavy: QVQLQQSGPGLVKPSQTLSLTCAISGDSVSSNSAAWNWIRQSPSRGLEWLGRTYYRSKWYNDYAVSVKSRITINPDTSKNQFSLQLNSVTPEDTAVYYCARTGYSSSWVVNFDYWGQGTLVTVSSASTKGPSVFPLAPSSKSTSGGTAALGCLVKDYFPEPVTVSWNSGALTSGVHTFPAVLQSSGLYSLSSVVTVPSSSLGTQTYICNVNHKPSNTKVDKRV[human IgG1 Fc left out]
light: QPVLTQSPSASGTPGQRVTISCSGSSSNIGSNYVYWYQQLPGTAPKLLIYKNNQRPSGVPDRFSGSKSGTAASLAISGLQSEDEADYYCAAWDDSLRGYVFGTGTKLTVLGQPKAAPSVTLFPPSSEELQANKATLVCLISDFYPGAVTVAWKADSSPVKAGVETTTPSKQSNNKYAASSYLSLTPEQWKSHRSYSCQVTHEGSTVEKTVAPTECS
modifications: MC-vc-PAB-MMAE on cysteine thiols of reduced disulfide bonds, positions not given; reaction DAR 10:1, final DAR 6.31; MC-vc-PAB-MMAE on cysteine thiols of reduced disulfide bonds, positions not state
B2: SNS622-MC-vc-PAB-DM1 (conjugate)
heavy: B1 heavy
light: B1 light
modifications: MC-vc-PAB-DM1 on cysteine thiols of reduced disulfide bonds, positions not given; reaction DAR 10:1 gives final DAR 6.56 (also made at 2.5:1 and 5:1); MC-vc-PAB-DM1 on cysteine thiols of reduced disu
B3: SNS622-MC-MMAE (conjugate)
heavy: B1 heavy
light: B1 light
modifications: MC-MMAE on cysteine thiols of reduced disulfide bonds, positions not given; reaction DAR 10:1 gives final DAR 5.72 (also made at 2.5:1 and 5:1); MC-MMAE on cysteine thiols of reduced disulfide bonds,
B4: SNS622-MC-PEG4-vc-PAB-DMEA-DUO: SNS622 conjugated to duocarmycin (DUO) by a combined linker of MC, PEG4, vc-PAB and DMEA (conjugate)
heavy: B1 heavy
light: B1 light
modifications: MC-PEG4-vc-PAB-DMEA-duocarmycin on cysteine thiols of reduced disulfide bonds, positions not given; reaction DAR 2.2:1, final DAR 1.92:1; MC-PEG4-vc-PAB-DMEA-duocarmycin on cysteine thiols of reduced

Experiments:
MOLM-14 cells = experiment: MTS cell viability assay, MOLM-14; type: cell-based, human; settings: MOLM-14, 24 hours; for IC50: read-out: IC50, MOLM-14 growth
Protocol: Human H460 cells were obtained from the American Type Culture Collection (ATCC; Manassas, Va., U.S.A.). […] Human MOLM-14 cells were obtained from Dr. Ashkan Emadi at University of Maryland (Baltimore. Md., U.S.A.). The MOLM-14 cells were seeded at a density of 5000 cells/well in 96-well plates and cultured in RPMI 1640 with 20% heat-inactivated FBS. The H460 and MOLM-14 cells were treated with naked antibodies or ADCs for 24 hours, starting at the time of cell seeding. By the end of experiment, the cell viability for both cell lines was determined quantitatively using CELL TITER 96 AQUOUS ONE SOLUTION cell proliferation assay, a colorimetric method for determining the number of viable cells (MTS; Promega, Madison. Wis., U.S.A.; Catalog No. G3582).

H460 cells [1] = experiment: Lactate dehydrogenase (LDH) release assay, H460; settings: read-out: LC50 of LDH; H460, 72 hours, reaction DAR 10:1
Protocol: (§1) FIG. 6 depicts the effects of linker and payload on cytotoxicity to cancer cell H460. […] The Log of the antibody concentration in nM is shown on the X axis.
HAAH is highly expressed on the surface of cancer cells, but not on normal adult human cells. The specificity of SNS622-MC-DM1 was examined using human lung carcinoma cell line H460 and LONZA NHLF, a normal human lung fibroblasts (NHLF) cell line. Both cell lines were cultured in HG-DMEM (ThermoFisher Scientific Catalog No. 11965-092) supplemented with 20 mM HEPES (4-(2-hydroxyethyl)-1-piperazineethanesulfonic acid), 4 mM L-glutamine, 1 mM sodium pyruvate, 1× non-essential amino acids, 50 μg/ml gentamicin and 10% fetal bovine serum (FBS). H460 and NHLF cells were seeded into 96-well plates at 5,000 cells per well, following a 2-day FBS deprivation, and released by culture in complete culture medium containing 10% FBS. The cells were allowed to grow for 2 days after releasing, and then treated with or without 32 nM SNS622-MC-DM1. By 72 hours post treatment, cell death was determined by observing cell morphology using a phase contrast microscope at 150×.
The cell death was also quantified using lactate dehydrogenase (LDH) releasing assay. For the LDH assay, a mixture of a 35 μl aliquot of culture medium and 17.5 μl of substrate, enzyme, and dye solutions (Sigma, St. Louis, Mo., U.S.A.) was incubated at room temperature for 30 minutes, and absorbance was measured at 490 nm using a plate reader (ELx805; BioTek, Winooski, Vt., U.S.A.).

H460 cells [2] = experiment: MTS cell viability assay, H460; type: cell-based, human; settings: for Effect on H460 cell viability / growth (MTS) / EC50: H460, 24 hours; for EC50: read-out: EC50, killing of H460 cells (MTS)
Protocol: Human H460 cells were obtained from the American Type Culture Collection (ATCC; Manassas, Va., U.S.A.). The H460 cells were seeded at a density of 5,000 cells/well in 96-well plates and cultured in HG-DMEM (ThermoFisher Scientific, Waltham. Mass., U.S.A.; Catalog No. 11965-092) supplemented with 20 mM HEPES, 4 mM L-glutamine, 1 mM sodium pyruvate, 1× non-essential amino acids, 50 μg/ml gentamicin, and 10% fetal bovine serum (FBS)). Human MOLM-14 cells were obtained from Dr. Ashkan Emadi at University of Maryland (Baltimore. Md., U.S.A.). The MOLM-14 cells were seeded at a density of 5000 cells/well in 96-well plates and cultured in RPMI 1640 with 20% heat-inactivated FBS. The H460 and MOLM-14 cells were treated with naked antibodies or ADCs for 24 hours, starting at the time of cell seeding. By the end of experiment, the cell viability for both cell lines was determined quantitatively using CELL TITER 96 AQUOUS ONE SOLUTION cell proliferation assay, a colorimetric method for determining the number of viable cells (MTS; Promega, Madison. Wis., U.S.A.; Catalog No. G3582).
as §1
The bioactivities of these SNS622 ADCs were examined using H460 cells. The cells were treated for 48 hours with these SNS622-MC-DM1s, or with SNS622 as control. Cell viability was evaluated at the end of the experiment using an MTS assay.
SNS622-MC-vc-PAB-DM1 and SNS622-MC-MMAE were also synthesized under different initial DAR ratios of 2.5:1, 5:1 and 10:1 at fixed pH8. The 460 cells were treated for 72 hours with ADCs SNS622-MC-vc-PAB-DM1 at with OAR 2.5:1; 5:1; and 10:1, or SNS622-MC-MMAE at with DAR 2.5:1; 5:1; and 10:1. The cell viability and cell death were separately quantified with […] and lactate dehydrogenase (LDH) release assays. FIG. 8A depicts a graph of the MTA quantification results expressed as percentage of untreated control. FIG. 8B depicts a graph of the LDH assay results expressed as percentage of 512 nM DM1-elicited maximal LDH release. The Log of the antibody concentration in nM is shown on the X axis.

Molecule | Effect on MOLM-14 cell viability / growth (MTS) (MOLM-14 cells) | IC50 (MOLM-14 cells) [nM] | CC50 (H460 cells [1]) [nM] | Effect on H460 cell viability / growth (MTS) (H460 cells [2]) | EC50 (H460 cells [2]) [nM] | IC50 (H460 cells [2]; H460, 72 hours, reaction DAR 10:1, read-out: IC50 of MTS) [nM] | IC50 (H460 cells [2]; stated for both cancer cell lines (H460 and MOLM-14), read-out: IC50, suppressing cell growth) [nM]
B1 | inhibit in vitro cell growth of both H460 and MOLM-14 | ~50 | 0.22 | decreased the H460 cell viability; also recorded: inhibit in vitro cell growth of both H460 and MOLM-14 | ~60 | 77 | 60
B2 |  |  | 55 |  |  |  | 
B3 |  |  | 16 |  |  |  | 
B4 | inhibit in vitro cell growth of both H460 and MOLM-14 | ~60 |  | decreased the H460 cell viability; also recorded: inhibit in vitro cell growth of both H460 and MOLM-14 | ~300 |  | 

From US20200390902A1, “Antibody-Drug Conjugates Targeted at Human Aspartyl-(Asparaginyl)-B-Hydroxylase (HAAH)” (Panacea Pharmaceuticals, Inc., priority 2017, published 2020)
